Measured values taken from the RNAGym collection of RNA variant scans (doi:10.1093/nar/gkz1192).
The source gives no read counts; variants with many changes may rest on few reads.

B1: CPEB3 Ribozyme (parent)
chain: UAACAGGGGGCCACAGCAGAAGCGUUCACGUCGCAGCCCCUGUCAGAUUCUGGUGAAUCUGCGAAUUCUGCUGUAUAUCUC

Variants of: B1
Assay: self-cleavage, relative activity (ratio to wild type); higher = more cleavage; in vitro, sequencing
Outline: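 Libraries of CPEB3 self-cleaving ribozyme mutants came from rounds of error-prone PCR and carried barcodes, which DNA sequencing matched to variants. In vitro transcription used T7 RNA polymerase at 37°C for 5 hours, with a further 15 min in DNase I before EDTA stopped the reaction; the ribozymes cleaved during both steps. The RNA was reverse transcribed with template switching and sequenced on Illumina. Relative activity is the cleaved/total read fraction of a variant divided by that of the unmutated ribozyme, averaged over three batches with at least 5 reads.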

| Variant | self-cleavage |
| --- | --- |
| A15G A28G G33A A45G G63U U74C | 0.08 |
| A15G C40U A56G | 0.44 |
| A15G A20G U25C C59A A65G | 0.33 |
| A15G A35G U48C U54C | 0.26 |
| A15G A28U C39U U72C | 0.75 |
| A15G A35U U51C | 0.3 |
| A15G A18G U26A U41A U54A A64G U74A | 0.07 |
| A15G A28G U49C U51A C59U U72C | 0.08 |
| A15G C32U U78C | 0.11 |
| A15G A35U U41C U60C U67C U74A | 0.1 |
| A15G A45U A47G C81U | 0.5 |
| A15G A28G U67A U78A | 0.23 |
| A15G A18G G33A U58A A64U U78A U80C | 0.06 |
| A15G A18G U41A A45U U48A G53A U72C | 0.37 |
| A15G C38A U74G | 0.13 |
| A15G A64G U80C | 0.79 |
| A15G C23U A47G | 0.45 |
| A15G A20G C38U U78C U80C | 0.23 |
| A15G A28G U69C | 0.34 |
| A15G C23A U41C U43A G52U G53C U54C | 0.07 |
| A15G A45G G53C U69C U78G | 0.17 |
| A15G C32U U51C | 0.18 |
| A15G A21G U26C U69A | 0.44 |
| A15G A20G U25C | 0.61 |

| Variant | self-cleavage |
| --- | --- |
| A15G A35U A64U U69C | 0.12 |
| A15G A20U A21G C23U A64U U67A | 0.08 |
| A15G C17A A18G A21G G53A | 0.35 |
| A15G A28U A35G U54A A56U A64G A77G | 0.11 |
| A15G A45U A64U | 0.29 |
| A15G A45U C62U | 0.38 |
| A15G A18U U43C A64G A65G U69C | 0.11 |
| A15G A35U A64U U66C | 0.16 |
| A15G A18G A57U U58C U67C | 0.07 |
| A15G A28U C40U U48C C50U U72C | 0.12 |
| A15G G24A C39U C50A U54A | 0.09 |
| A15G A21G C32A U80C | 0.1 |
| A15G A21G U25A U41C | 0.37 |
| A15G A35U C40U | 0.33 |
| A15G A18G C27A U41C A56G | 0.22 |
| A15G C40U U60C | 0.23 |
| A15G A21C A28U A35U | 0.21 |
| A15G A45U A47G | 0.35 |
| A15G A20U A77G | 0.29 |
| A15G G24A A28C A35U U48C | 0.22 |
| A15G C29G U74C A75U | 0.1 |
| A15G A21G U41C U60C U74C | 0.22 |
| A15G C27G A28C U41C U69A | 0.26 |
| A15G C40A U69C | 0.05 |

| Variant | self-cleavage |
| --- | --- |
| A15G A20G A35G A47G G55A U72A U74A | 0.09 |
| A15G C38G A56G | 0.41 |
| A15G A20U G24A | 0.29 |
| A15G G24A U41C U72G | 0.18 |
| A15G A64U U72C | 0.36 |
| A15G G16C G63C | 0.21 |
| A15G C40A U43C G53A | 0.14 |
| A15G A20G U49A U51C U54C U72C | 0.63 |
| A15G A56U U80A | 0.65 |
| A15G A20G U80C | 0.59 |
| A15G C34U A35U G52A U76C | 0.15 |
| A15G A21G A56G | 0.15 |
| A15G A21G A56C | 0.16 |
| A15G C17U U43C U78C | 0.32 |
| A15G A35U G73A | 0.78 |
| A15G A21G U26C G33A U51A A56G U72C | 0.07 |
| A15G A20C U41A U51A | 0.36 |
| A15G A18G U54C A77C | 0.18 |
| A15G A57G U60C A77G U80G | 0.39 |
| A15G A35U A45U G61A | 0.15 |
| A15G A35U A45U U51C | 0.18 |
| A15G A35G U54C A56G A64G | 0.4 |
| A15G A20G A45G G61A | 0.21 |
| A15G C37U U60C U80C | 0.34 |

| Variant | self-cleavage |
| --- | --- |
| A15G A56U U67A | 0.17 |
| A15G A21G U31C C40U | 0.23 |
| A15G A18U U51C | 0.16 |
| A15G C27A G42A A45U | 0.23 |
| A15G A45G U58G C59U | 0.16 |
| A15G C39U G53A | 0.85 |
| A15G G30A U41A A56U U66G A77U U78C | 0.03 |
| A15G C40A U78C | 0.35 |
| A15G A21C C44A A56G A64G U69A | 0.12 |
| A15G A18U U48C | 0.15 |
| A15G A45C A57G | 0.2 |
| A15G A18U C32A A35G U41A | 0.06 |
| A15G C17A U25C U43A | 0.06 |
| A15G G24A A28U U72C | 0.18 |
| A15G A20U G33U U69C U72A U80C | 0.05 |
| A15G A18G C37A U69C | 0.15 |
| A15G A28U G46A U60A U69C U72A | 0.05 |
| A15G A20G A28G U60C A65G | 0.26 |
| A15G A21U A28G U43C A64U | 0.13 |
| A15G A21G A28G A45U U69A U72A | 0.04 |
| A15G C17G C59A | 0.3 |
| A15G A28G U31A U43A | 0.33 |
| A15G A35G A57G A75U A77G | 0.98 |
| A15G A47G U74G | 1.2 |

| Variant | self-cleavage |
| --- | --- |
| A15G A21G U26A C38G U43A U58A | 0.06 |
| A15G A28C U41C A45G | 0.3 |
| A15G A20U A35G | 0.16 |
| A15G C44A A56G | 0.16 |
| A15G A47G A56U | 0.27 |
| A15G A57G U67C | 0.07 |
| A15G G22A A47G | 0.13 |
| A15G A28U U31A | 0.55 |
| A15G A65G U72C | 0.71 |
| A15G A28C U41A C44A | 0.3 |
| A15G A28G C32A | 0.14 |
| A15G C38U U58A U60A A65G U78C | 0.04 |
| A15G C34U A45G A47G U51G U58C U72C | 0.1 |
| A15G A18G U48C | 0.21 |
| A15G A21G U31C A35U C38G U43A A45G | 0.27 |
| A15G A20G A35G G61A U80C | 0.08 |
| A15G A20G A47G U69A | 0.14 |
| A15G C40U G73A | 0.7 |
| A15G A21G A35U A56G U58A U69A G73A | 0.1 |
| A15G C27G A28G C40G U69C | 0.19 |
| A15G A21G U41C | 0.46 |
| A15G A35U A45G A64U | 0.19 |
| A15G G19A U69C G70A | 0.1 |
| A15G A18U C23U A47C A56G U60A A65U | 0.02 |

| Variant | self-cleavage |
| --- | --- |
| A15G A21G U26C U49C A57G G63C A64G | 0 |
| A15G A35U A45G U49C U60C U78C | 0.09 |
| A15G C27A U66C | 0.07 |
| A15G A18G U31C U41A U49C | 0.15 |
| A15G A18U U26C U51A A57C U67C | 0.06 |
| A15G A47G U51C U60C | 0.27 |
| A15G A20G A56U U60C A64U | 0 |
| A15G A47G A75G | 0.89 |
| A15G A21G A28G U58A A64U A65G | 0.09 |
| A15G A28U U69C | 0.34 |
| A15G A18U U60A | 0.15 |
| A15G G30A G52U U69C | 0.07 |
| A15G A18U U43C | 0.38 |
| A15G A21G U67A U80C | 0.53 |
| A15G A64G A65G | 0.16 |
| A15G C17A U25C U31G U54A U74A | 0.07 |
| A15G G16C U25C | 0.08 |
| A15G A21G A35U U41C U49C | 0.03 |
| A15G C17G A35G U43C U58C A75G | 0.09 |
| A15G A45G U48C | 0.47 |
| A15G A18U A21G U31A A57G U80C | 0.1 |
| A15G G16U U49C A64G | 0.06 |
| A15G C23A U74C U78A | 0.11 |
| A15G A20G U25C U60C U66C G73A A77G | 0.12 |

| Variant | self-cleavage |
| --- | --- |
| A15G G24A U43A | 0.35 |
| A15G C29G U41C U51A A57G U72C | 0.18 |
| A15G A28G A35U | 0.25 |
| A15G A28G A35G | 0.44 |
| A15G A20U G30A U51C A57U U80C | 0.12 |
| A15G A28G U43A U72C U74C | 1.44 |
| A15G G16A C27A G42A U54G U66A | 0.03 |
| A15G A21U U26C A45U U58C | 0.09 |
| A15G A35U A56G | 0.24 |
| A15G A20G U25C U78C | 0.41 |
| A15G A21G U80A | 0.94 |
| A15G A20G C40U | 0.26 |
| A15G A21G U48C | 0.22 |
| A15G C39U A65G | 0.11 |
| A15G A57G U66C U80C | 0.93 |
| A15G A35G A57G | 0.78 |
| A15G A28G G46A A47G G52U U80A | 0.11 |
| A15G A35U U43C U49C | 0.07 |
| A15G A57G A64U | 0.19 |
| A15G A18U A21G U67C U74C | 0.2 |
| A15G A28G U49C U72A U80C | 0.09 |
| A15G A21U C39A | 0.19 |
| A15G C34U U58C C71G | 0.08 |
